In the supplement of paper PMC4466236:
In all, about 33,000 sequences were measured (“E-score (dimensionless, -0.5 to 0.5)”: median about -0.058, highest 2% from about 0.35 on). Some of the results follow.

Tested on: MvaT
Experiment: PBM 8-mer E-score (mean of HK and ME arrays) (E-score (dimensionless, -0.5 to 0.5)); higher = stronger relative binding preference; most listed sequences are background and not binding sites
Method in brief: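 Full-length P. aeruginosa MvaT carrying an N-terminal glutathione S-transferase tag was tested by protein binding microarray following a previously described protocol. Two universal double-stranded 60-mer arrays, ME and HK, were used, each with a constant 25-mer primer region and a variable 35-mer region covering all 8-mers. The rank-based E-score is the mean of the two arrays, parsed with a custom script. Its range runs from -0.5 to 0.5 for each 8-mer.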

Sequence	PBM 8-mer E-score
GGCCGCTA	-0.25
AAAACGCA	0.108
ACATTTGC	0.0645
ACAGAATG	0.00766
AGCAAGTA	0.235
ACCTGATG	-0.126
ATAGTATC	0.165
AATGGACC	-0.0836
ACGACACG	-0.202
GTAACCCA	0.0633
AGACTTAG	0.0243
ACGTTACG	-0.0185
TATCCCAA	0.0975
TACATTGA	0.278
TATGAGGA	-0.193
AGTTCGGC	-0.04
ACTAAGAA	0.121
AGGAACAA	-0.0365
ACGCTTAC	-0.0937
ACGAGTCC	-0.243
GGCCATAC	-0.125
GGACCAAA	-0.139
CCCACTCA	-0.0678
CCTAGTTA	0.138
CATCGTAG	-0.226

Sequence	PBM 8-mer E-score
AGGTATCA	-0.121
ATCTATCC	0.0466
CATATCAC	0.15
ATTGTAGC	0.0718
GATTACTA	0.202
AAACCCCG	-0.166
ACGAGCAT	-0.00517
CCGTACTA	-0.0352
GCGGGCTA	-0.168
CACTAGCG	-0.193
CCAGGGTA	-0.193
ATTCTCGG	-0.132
CTTTGGAC	-0.0734
CAAGCCTA	0.00415
CAAGGTCC	-0.0948
AGCTTTCG	-0.136
GCACAAGA	-0.0223
TCCCGAGA	-0.0887
GTCACCAC	-0.152
ACCAACGA	0.0612
AGGGTGTA	0.0327
AGGCTACT	-0.149
GTCGACCA	-0.117
GATTCACC	-0.0998
AGCGCACC	-0.199

Sequence	PBM 8-mer E-score
ACGGTCGC	-0.1
GTCATGAA	-0.112
AATGTGAT	0.0908
CTCGTCCA	-0.307
AAGATCGA	0.0129
ATGTCGAC	0.0419
GCCTCGCC	-0.29
AAATGAGG	0.0468
ACCTTTAA	0.252
GTATATAC	0.41
AAACTCCG	0.0101
CATTAAGC	0.0879
CTGTCATC	-0.155
TCGACGCA	0.0269
GTAGTCAA	0.0203
CGGGAACC	-0.262
AAGTGTTC	0.122
AAGTATGA	0.236
TCGTAAGA	0.0638
GTGTAACA	0.206
ATTGCTAC	0.11
AAGAGAAT	0.126
CCGAACAC	-0.171
ACAAGGTA	-0.0731
AGTTAAAA	0.37

Sequence	PBM 8-mer E-score
GCCCCTAC	-0.269
GGATAGCC	-0.302
AATAGCGC	0.167
CTCCAGCA	-0.216
ATGACCAA	0.0889
CTCTGAGC	-0.201
AAAGGACC	-0.146
AACACTCG	-0.0649
GGTCCACA	0.0192
CTGGCCCC	-0.243
CTACTGGC	-0.0919
AACCCGAT	-0.0416
CAGGGTAC	-0.17
CAGCCGGC	-0.326
CCTGACCC	-0.294
TACGGTAA	0.149
CAGCGCTA	-0.16
CTAACCAA	0.106
AGAAGGCT	-0.316
GGGAGTGA	-0.218
ATAAAGTC	0.191
AGGTTATA	0.239
CCTCGAAG	-0.127
ATACTGAT	0.1
GCTGAACA	-0.239

Sequence	PBM 8-mer E-score
CCGTAGTA	-0.0648
GGCTTCAA	-0.0744
AGCTTTGA	-0.0401
CGGAAGTC	-0.138
ACCCGGCC	-0.152
AAAGAGTA	0.165
CTTTGTGA	0.0143
CCTTCTCA	-0.16
AGGCAACG	-0.115
GATTGGTA	0.178
CCTGAAAG	-0.101
GACCACAC	-0.136
GACCCCTC	-0.284
GGCCCTAC	-0.294
GCGCGCGC	0.0499
CGCCCAAA	-0.0445
CAACCCGC	-0.00327
AACGACGC	-0.113
ACTCTCCA	-0.00357
ATCCCTTC	-0.172
GCCAGTGA	-0.318
CGCTGAAC	-0.167
AACGCCTG	-0.179
CACTTACG	0.102
CCATAAAA	0.202

Sequence	PBM 8-mer E-score
ACAATATG	0.262
ACATCACC	-0.215
TCACAGAA	-0.0614
GACAGCCA	-0.0601
CTTGAACC	-0.162
ACAAAATA	0.39
ACTCTAAC	0.11
GATGAATC	-0.0617
CGTGTAGC	-0.186
CCGAACAG	-0.0091
CTCGCGGC	-0.259
AGCCGCCC	-0.214
CTATACTC	-0.0354
AGTGAGTG	-0.0324
CGATTCCC	-0.0911
AATTCTTG	0.144
AGTCGCAC	-0.0455
ATCTGGGC	-0.238
ATTCTGCA	0.1
GCTCCGAC	-0.151
ACCTAAAG	-0.0632
GTCAAGAC	-0.0667
CCAAACCG	-0.101
AGACGTTC	-0.262
ATGCGCCA	-0.0242

Sequence	PBM 8-mer E-score
ACGGTTCC	-0.202
CTTATCGC	0.049
TGGCACCA	-0.0973
GACCGCAC	-0.231
AGCGCGAT	-0.196
GCAGTCCA	-0.155
ATTGTGGG	0.052
CGGACGAC	-0.293
CAAGATAA	0.21
ATATGTAA	0.309
ATAATGGG	0.229
AGACCAGC	-0.125
ACTCCGTA	-0.079
CAAGTTCG	0.183
ACGGAACT	-0.0238
AGAGATCA	-0.16
CTGTAATC	0.0848
ATCGAAAT	0.228
TATCAGCA	0.0546
CAAGATGA	-0.12
ACCCAAGG	-0.274
TAACGGGA	0.121
ATCGACTA	-0.0383
GACCCATA	-0.0337
GATAATGA	0.225

Sequence	PBM 8-mer E-score
AACCGTTA	0.132
GTGCAATA	0.159
AAATGCGC	0.0866
GGTCATCA	-0.029
ACTCACGC	-0.108
CATCGTAA	-0.00964
ACTCTATA	0.231
AGGTGTCC	-0.202
AAGAAAGT	0.295
TCCTTTCA	-0.123
AGTAAAGC	-0.0688
GAGCTACA	-0.0868
CATATATA	0.451
AGGGACCC	-0.282
CCTGAGAC	-0.283
ACGATCGG	-0.112
CGCCGTTC	-0.0974
AGACAATG	0.12
AACCGCCG	-0.233
AACAGGAC	0.00152
AGTAAGCC	-0.0729
AAGGTCTG	-0.162
ATTTCGCA	0.216
CCAATTCG	-0.0984
CCCAAAGG	-0.28

Sequence	PBM 8-mer E-score
CTCACATC	-0.279
AGATAAGC	0.0228
CGTAAGTA	0.0963
AACTCTAC	0.118
ACAAGTAG	0.202
AGGGAGAA	-0.164
CAACCAAA	0.105
CCTCTTAA	0.0626
CATTGCTA	-0.049
CCACTACA	0.0434
CCTCGTAC	-0.108
AACTTTTA	0.34
ATGAGTAC	0.21
CCTAGGTC	-0.272
GGCCTACC	-0.323
TAACTGGA	0.225
GCCGTGCA	-0.0899
CTGACAAG	-0.192
GGAACCCC	-0.336
CTGTCAAG	-0.125
GCTTTACC	-0.0879
CCTCAAAA	-0.00376
AGGCCAGG	-0.23
AAGACGCC	-0.227
CTAATATA	0.434

Sequence	PBM 8-mer E-score
ATCAAAAG	0.0981
ATCCCAAA	0.0803
TCAATCGA	-0.0479
AGACGCCT	-0.288
GATTACCA	0.0745
CATTAGGG	-0.306
AAAGTAGT	0.235
ACGTAGTG	-0.146
CAGAGTGG	-0.169
AGAAACAG	0.0342
GCGTCAGA	-0.131
GCCGATTA	0.00795
AACTACTA	0.239
ACATCACA	-0.00205
CCTACTAC	-0.0926
CCAGGCCC	-0.315
ATTGCCCC	-0.0605
CCGCCTGA	-0.259
ATGAGCAT	-0.143
AATAAGCC	0.183
ACTGGTCT	-0.0903
CGCAGTTA	0.179
ATGAGAAA	0.0934
TAAGACGA	-0.0159
AGCGATGA	0.00185

Sequence	PBM 8-mer E-score
CAGGTTTA	0.0374
CCGCTGAC	-0.192
AGTGAAAA	0.0323
ACCTAGGT	-0.068
CCCGCACG	-0.204
ACTAGACT	-0.0171
AGTGTCAA	0.0442
CAGATATC	0.0971
ACGGTGCC	-0.234
ACAAAGTC	-0.00742
CGGGACCG	-0.191
GAATCACC	-0.137
GTATCGCA	0.0328
CATGCTAA	-0.00363
GACGCTCC	-0.272
ACCCTTTC	-0.289
ACAGACGC	-0.0838
GAACGTGA	0.0425
GCCTCGTA	-0.109
CACCTGCA	-0.17
GTAGCCGA	-0.0246
CACGTCTC	-0.173
ATAAACCG	0.145
CTAATGCA	-0.0396
CGTCGGAG	-0.239

Sequence	PBM 8-mer E-score
GGGCGCCC	-0.231
ACACACGG	-0.207
GCCTGAAA	-0.145
GCGCACCC	-0.268
ATGCTGAG	-0.216
CAACGCAG	-0.078
GAATAACC	0.197
AACCGACC	-0.0337
CAATAGGC	-0.161
CAATGAGG	-0.12
AGTGCTAT	0.172
GAAAGATC	-0.12
GGGGGGAA	-0.179
CTGTATGC	-0.0229
GAGGGGCA	-0.237
GAGTAACC	-0.00206
GGAAGGTA	-0.0496
CCGAAAGG	-0.3
CACGACGG	-0.274
CGATAGCC	-0.14
AGGTGAAT	0.0769
ACATCCAG	0.0662
CCACCTCG	-0.129
ACTGCCTA	-0.0804
AAAAGTAA	0.28

Sequence	PBM 8-mer E-score
CTCGTATA	0.149
TGTATGAA	0.183
AACTTCAT	0.239
GGGATTCA	-0.0883
CCTGTTCG	-0.151
GTAAACGA	-0.0533
AACCGGCC	-0.111
GTGACTGA	-0.146
GCGAGAAA	0.0152
TAACGTCA	0.0862
CTGGGGCA	-0.263
AGAACCCC	-0.237
AGAGAAAC	-0.0279
CCAATGCA	-0.119
AAGGCGCA	-0.191
CCCTTCTA	-0.152
ACTGGCGC	-0.104
ACTCTGAT	0.0137
GGCACAGA	-0.147
AGCCGCCT	-0.243
CGCGGACG	-0.123
CAGCCTAG	-0.219
AAGCAAAT	0.0693
AGGACCAG	-0.184
ATCACGAG	-0.0754

Sequence	PBM 8-mer E-score
AGCGTAAG	-0.172
ACGCTTTG	-0.117
GCTATCCC	-0.0801
CTGGTAAA	0.0988
ATTGAACG	0.1
ATCGTTGC	-0.0117
CCAGTAAG	-0.0309
GCGCAGCA	-0.211
GCTCCTAC	-0.185
ATGACTAC	0.0478
CTAAGCGA	-0.143
ACTGCGAA	-0.0565
AGGGTAGA	-0.173
GGTACGGA	-0.173
CATGTCGC	-0.129
AGCTAGGC	-0.32
ACGTCCCA	-0.171
GGACGGAA	-0.0579
AGCCCCCG	-0.367
